About 14,000 (4.5%) of roughly 310,000 compounds showed an effect of 50% or more. Effects have a minus sign here. Some of the results follow.
Molecular target: human ether-à-go-go-related gene (hERG) potassium channel (human, UniProt Q12809)
Assay: primary screen, population patch clamp on CHO cells stably expressing hERG
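Further: peak tail current of the secondary pulse compared with the same well before compound.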

Chain of human ether-à-go-go-related gene (hERG) potassium channel (Q12809 whole entry, looked up): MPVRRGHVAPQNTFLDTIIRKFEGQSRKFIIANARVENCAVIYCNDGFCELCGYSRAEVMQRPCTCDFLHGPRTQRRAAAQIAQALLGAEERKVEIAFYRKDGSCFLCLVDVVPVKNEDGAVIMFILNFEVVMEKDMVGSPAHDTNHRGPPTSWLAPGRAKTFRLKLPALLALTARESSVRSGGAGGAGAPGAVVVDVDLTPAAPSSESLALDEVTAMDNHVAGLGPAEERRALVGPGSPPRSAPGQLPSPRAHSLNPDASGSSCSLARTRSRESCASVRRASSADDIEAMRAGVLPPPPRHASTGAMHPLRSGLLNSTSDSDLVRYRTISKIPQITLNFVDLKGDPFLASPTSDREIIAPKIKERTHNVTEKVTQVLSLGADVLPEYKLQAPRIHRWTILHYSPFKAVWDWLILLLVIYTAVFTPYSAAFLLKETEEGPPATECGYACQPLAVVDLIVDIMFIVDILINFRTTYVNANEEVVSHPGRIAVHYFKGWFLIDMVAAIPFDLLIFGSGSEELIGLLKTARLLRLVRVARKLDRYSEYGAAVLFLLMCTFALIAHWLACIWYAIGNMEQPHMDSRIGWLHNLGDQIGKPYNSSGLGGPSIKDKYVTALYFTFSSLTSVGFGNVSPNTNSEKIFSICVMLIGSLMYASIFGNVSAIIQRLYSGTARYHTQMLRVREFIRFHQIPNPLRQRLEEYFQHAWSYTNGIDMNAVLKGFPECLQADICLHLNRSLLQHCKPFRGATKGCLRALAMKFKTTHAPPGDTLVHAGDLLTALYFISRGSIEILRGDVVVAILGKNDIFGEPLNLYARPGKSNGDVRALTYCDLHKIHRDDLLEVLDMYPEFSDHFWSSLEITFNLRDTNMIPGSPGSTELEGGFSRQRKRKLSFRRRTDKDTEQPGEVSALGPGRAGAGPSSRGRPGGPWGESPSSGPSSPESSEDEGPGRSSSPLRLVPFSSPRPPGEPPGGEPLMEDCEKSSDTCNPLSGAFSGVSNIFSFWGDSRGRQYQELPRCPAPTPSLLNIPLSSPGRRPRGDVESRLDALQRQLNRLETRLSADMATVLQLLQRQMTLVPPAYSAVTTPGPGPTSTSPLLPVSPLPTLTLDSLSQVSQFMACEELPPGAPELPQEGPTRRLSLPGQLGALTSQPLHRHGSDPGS

In order of rising “hERG current change (%, negative = inhibition) at 10uM” value:
1. CCCn1c(=N)c(C(=O)NCc2ccc3c(c2)OCO3)cc2c(=O)n3cccc(C)c3nc21  -76.5%
2. CCCCNC(=O)CCc1nc2cccnc2n1Cc1ccccc1  -51.7%
3. Brc1ccc(-c2c[n+]3c(n2-c2ccccc2)SCC3)cc1.[Br-]  -49.4%
4. CCOC(=O)c1cc2c(n(-c3ccc(C)cc3)c1=O)CCCC2=O  -45.4%
5. N#C/C=C/N1CCC(Cc2ccccc2)CC1  -45.3%
6. Cc1cc2nc(CN(C)Cc3c(C(=O)N(C)C)nc4ccc(Cl)cn34)[nH]c2cc1C  -42.7%
7. CCn1c(SCC(=O)Nc2ccccc2C(=O)OC)nnc1-c1ccc(N)cc1  -36.4%
8. Clc1ccc(C2=CC(c3ccco3)n3ncnc3N2)cc1 (centres unmarked)  -36.4%
9. O=C(NCc1ccco1)c1cc(S(=O)(=O)N2CCCCC2)ccc1Cl  -34.8%
10. CCOC(=O)N1CCN(Cc2nc(-c3ccc(Cl)cc3)no2)CC1  -30.6%
11. Cl.OCCN(Cc1ccccc1)CC(O)COc1ccc(-c2ccccc2)cc1 (centres unmarked)  -28.3%
12. CCOC(=O)Cc1nnc(Nc2cccc(O)c2)c2ccccc12  -24.9%
13. CC1(C(=O)Nc2nnc(SCc3ccccc3)s2)Cc2ccccc2C(=O)O1 (centres unmarked)  -24.6%
14. Cc1ccc(S(=O)(=O)N(C)C)cc1NC(=O)CCc1c[nH]c2ccccc12  -22.8%
15. CSc1nc(N)nc(SC2C=CCCC2)c1C#N (centres unmarked)  -21.3%
16. CCOC(=O)c1ccccc1NC(=O)COC(=O)c1cc([N+](=O)[O-])ccc1N1CCOCC1  -21.3%
17. Cc1nnc2n1-c1ccc(Br)cc1C(c1ccccc1Cl)=NC2  -21.1%
18. O=S(=O)(NCCc1ccccn1)c1cc(Cl)cc(Cl)c1O  -15.9%
19. CN(C)c1ccc(/C=N\S(=O)(=O)c2ccccc2)cc1  -15.7%
20. OCCC1CN(Cc2ccc3cccc(F)c3n2)CCN1Cc1ccccc1 (centres unmarked)  -15.6%
21. Cc1ccccc1CC(=O)Nc1ccc2c(C)cc(=O)oc2c1  -15.3%
22. CCSc1nnc(CNc2ccc(F)cc2)n1CC1CCCO1 (centres unmarked)  -15.1%
23. O=S(=O)(Nc1cnc2ccccc2c1)N1CCCCCC1  -14.8%
24. Cc1ccc2nc(-c3cccnc3)cc(C(=O)Nc3ccc(F)cc3C)c2c1  -13.5%
25. CCOC(=O)Cn1c(-c2cccnc2Cl)nc2cc(C)c(C)cc21  -11.8%
26. COc1ccc(N2CCN(CCNC(=O)Nc3ccc(C)cc3Cl)CC2)cc1  -9.48%
27. Cc1cc(C)nc(N(C#N)Cc2ccc(Cl)cc2)n1  -8.48%
28. CC(CN1CCOCC1)OC(=O)C(C)(c1ccccc1)c1ccccc1 (centres unmarked)  -8.05%
29. CCOc1cccc(OCCOCCn2cnc3ccccc3c2=O)c1  -7.83%
30. COc1ccc(C(=O)Cc2ccc(F)cc2)c(OC)c1  -7.35%
31. Cc1ccc(Cn2ccc(NC(=O)c3cc(-c4cccc(Cl)c4)on3)n2)cc1  -6.37%
32. COc1cc(CC(=O)OCC(=O)NCc2ccc(C)cc2)cc(OC)c1OC  -6.31%
33. Cc1c(OC(C)C(=O)NCCCN2CCCC2=O)ccc2c3c(c(=O)oc12)CCCC3 (centres unmarked)  -6.3%
34. Cc1ccc(NCc2nnc(SCC(=O)N3CCCCC3)n2CC2CCCO2)c(C)c1 (centres unmarked)  -5.62%
35. Cc1cccc(N(C)C(=O)c2cc(S(=O)(=O)N3CCCC3)cn2C)c1  -5.54%
36. CC(NCc1ccc(N(C)C)cc1)C1CC2CCC1C2.Cl (centres unmarked)  -5.02%
37. COc1cccc(C2c3[nH]c4ccccc4c3C[C@H]3C(=O)N(c4ccccc4C(=O)N4CCCC4C(=O)O)C(=O)N23)c1 (some centres unmarked)  -4.3%
38. O=S(=O)(CCSc1ccccn1)c1nc2ccccc2s1  -4.26%
39. CCOc1cc(C)cc2oc(=O)c3c(c12)CCCC3  -3.74%
40. Cc1cc(S(=O)(=O)N2CCCC2)ccc1OCC(=O)NC1CCCC1  -3.56%
41. Cc1cc(NS(=O)(=O)c2ccc(NC(=O)C(C)Oc3cc(C)c(Cl)c(C)c3)cc2)no1 (centres unmarked)  -3.05%
42. CC(=O)c1ccc(N=C2SCCCN2C(=O)C2CCCC2)cc1  -2.8%
43. COc1cnc(-c2ccccn2)nc1Oc1ccc(C(C)(C)C)cc1  -2.72%
44. Cc1noc(C)c1COC(=O)c1cc(C)n(-c2ccccc2)c1C  -2.49%
45. COCCn1c(SCC(=O)NC2CCCCC2C)nc2ccccc2c1=O (centres unmarked)  -2.48%
46. COC(=O)C1=C(C)N(CCCCCC(=O)O)C(=O)NC1c1ccccc1 (centres unmarked)  -2.04%
47. O=C1CC(c2ccccc2Cl)CC(O)=C1C=NCCCO (centres unmarked)  -1.74%
48. CCC(C)SCC(=O)Nc1ccc(S(=O)(=O)N2CCOCC2)cc1OC (centres unmarked)  -0.663%
49. CCOC(=O)Cn1cnc2c(nnn2-c2ccc(C)cc2)c1=O  -0.39%
50. Cc1cc(OCC(O)CN2CCN(c3ccccn3)CC2)cc(C)c1Cl.Cl (centres unmarked)  -0.237%
51. Cc1ccc(C)c(C(=O)CSc2n[nH]c(-c3ccncc3)n2)c1  -0.0279%
52. O=C1Nc2ccccc2C(=O)C1(Cl)Cc1ccccc1 (centres unmarked)  0.0294%
53. O=C(CSc1nc2ccccc2c(=O)n1NC(=O)c1ccccc1)c1ccc(Cl)cc1  0.301%
54. COc1cccc(C(c2sc3ncnn3c2O)N2CC(C)OC(C)C2)c1 (centres unmarked)  0.441%
55. O=C(O)CCNS(=O)(=O)c1ccc(Oc2ccccc2)cc1  0.639%
56. O=C(NC1CCCCC1)C1(S(=O)(=O)c2ccc(Cl)cc2)CC1  0.692%
57. Cc1ccc(C(=O)Nc2cc([N+](=O)[O-])ccc2F)s1  0.853%
58. Nc1c(-c2ccccc2)cnn1-c1cccc(C(F)(F)F)c1  1.64%
59. CCCNC(=O)COC(=O)c1cc2c(=O)n3ccccc3nc2s1  2.01%
60. COc1ccc(CCNC(=O)CCCN2C(=O)c3ccccc3C2=O)cc1OC  2.11%
61. Cc1ccc(/C=N/NC(=O)c2nnn(-c3nonc3N)c2CN(C)C)s1  2.16%
62. COc1cccc(N(C(=O)CS(=O)CC(=O)Nc2ccc(F)cc2)C(C(=O)NC2CCCCC2)c2cccs2)c1 (centres unmarked)  2.24%
63. CC(C)OCCCNc1ccc(N2C(=O)CCCC2=O)cc1[N+](=O)[O-]  3.25%
64. O=C(O)C1C2C=CC3(CN(Cc4ccccn4)C(=O)C13)O2 (centres unmarked)  3.43%
65. COc1ccc(NC(=O)C2CC(=O)OC2(C)C)cc1 (centres unmarked)  3.44%
66. OCCc1c[nH]c2ccc(OCc3ccccc3)cc12  3.65%
67. c1ccc(C2OCC3(CO2)COC(c2ccccc2)OC3)cc1 (centres unmarked)  4.18%
68. COc1ccc(Oc2ccc(C(F)(F)F)cc2NC(=O)c2ccc(C)cc2)cc1  4.33%
69. CCOc1ccc(S(=O)(=O)n2cc(-c3ccccc3)c(N)n2)cc1  5.5%
70. C=CCOc1cccc(C2C(C(=O)c3ccc(C)o3)=C(O)C(=O)N2CCN(C)C)c1 (centres unmarked)  6.81%
71. C[C@]12C(=O)N(c3ccc(F)cc3)C(=O)N1[C@@H]1c3ccccc3OC[C@@H]1[C@H]2c1ccccc1  7.01%
72. CCOc1ccc2nc(NC(=O)CN3CCC(n4nnc5cc(C(F)(F)F)ccc54)CC3)sc2c1  7.59%
73. CCNC(=O)CC1C(=O)N(c2cccc(OC)c2)C(=O)N1CCOC (centres unmarked)  8.39%
74. O=C(NC(=S)Nc1ccccc1N1CCCCC1)c1ccc(F)cc1  9.33%
75. CCOC(=O)c1cccc(NC(=O)CCOc2ccccc2)c1  11.3%
76. Cc1nc(S(=O)(=O)Nc2ccc3c(c2)OCCO3)cn1C  13.1%
77. CCOC(=O)CSc1nc(=O)n2ccccc2n1  13.2%
78. COC(=O)c1cccc(NC(N)=S)c1  14.1%
79. COc1ccccc1CNC(=O)CC(C)C  14.7%
80. Cc1nc2sc(C(c3ccco3)N3CCc4ccccc4C3)c(O)n2n1 (centres unmarked)  15%
81. OCC[C@@H]1C[C@@H](O)[C@H](O)[C@@]2(CCCc3ccccc3O2)O1  15.1%
82. O=C(OCc1ccccc1)C1=NNC2C(=O)N(Cc3ccccc3)C(=O)C12 (centres unmarked)  16.2%
83. COc1ccc2[nH]c3c(=O)n(CCCC(=O)NC4CCC(C)CC4)c(=S)[nH]c3c2c1 (centres unmarked)  16.8%
84. COc1ccc(CCNc2nc(C)nc3c2nnn3Cc2ccccc2)cc1  16.9%
85. Cc1nc2c(C(=O)NCc3ccc(F)cc3)c[nH]n2c(=O)c1Cl  17.6%
86. CCN(CC)C(=O)C[n+]1cccc(/C=N/O)c1  21%
87. Cc1cc(N2CCN(C)CC2)nc2ccc(NC(=O)CCC(=O)NCCCOC(C)C)cc12  21.5%
88. COc1cc(NC(=O)CSc2nncn2C)c(C)cc1[N+](=O)[O-]  29%
89. S=C(Nc1cccnc1)N1CCCCC1  33.3%
